In the supplement of paper PMC4967469:

Compound: COc1ncc(-c2ccc3nccc(-c4ccnnc4)c3c2)cc1NS(=O)(=O)c1ccc(F)cc1F [GSK2126458]
Assay: Viability of human cancer cell lines after 72 h of drug (GDSC screen)
Conditions: top dose inferred
Description: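 Human cancer cell lines in 384-well plates, medium with 10% serum, drug for 72 h over a 256-fold dose range (nine 2-fold or five 4-fold steps up to the top dose). Adherent lines were fixed and stained with the nucleic acid dye Syto60, suspension lines read with resazurin; signal relative to control wells, capped at 0 and 100%. One two-parameter sigmoid per drug and line, fitted in a mixed model over all curves with the slope shared within a line.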

Caov-4 (ovary, adherent, top dose 0.128 µM)
AUC: 0.901 | IC50: > 128 nM

Capan-2 (pancreas, adherent, top dose 0.128 µM)
AUC: 0.865 | IC50: > 128 nM

ChaGo-K-1 (non-small cell lung carcinoma, adherent, top dose 0.128 µM)
AUC: 0.931 | IC50: > 128 nM

D-247MG (glioma, adherent, top dose 0.128 µM)
AUC: 0.118 | IC50: < 0.5 nM

D-263MG (glioma, adherent, top dose 0.128 µM)
AUC: 0.977 | IC50: > 128 nM

D-283MED (medulloblastoma, adherent, top dose 0.128 µM)
AUC: 0.991 | IC50: > 128 nM

D-336MG (glioma, adherent, top dose 0.128 µM)
AUC: 0.53 | IC50: 9.92 nM

D-392MG (glioma, adherent, top dose 0.128 µM)
AUC: 0.811 | IC50: 101 nM

D-423MG (glioma, adherent, top dose 0.128 µM)
AUC: 0.465 | IC50: 6.27 nM

D-502MG (glioma, adherent, top dose 0.128 µM)
AUC: 0.638 | IC50: 23.8 nM

D-542MG (glioma, adherent, top dose 0.128 µM)
AUC: 0.883 | IC50: > 128 nM

D-566MG (glioma, adherent, top dose 0.128 µM)
AUC: 0.51 | IC50: 8.5 nM

DAN-G (pancreas, adherent, top dose 0.128 µM)
AUC: 0.671 | IC50: 22.4 nM

DB (B-cell lymphoma, suspension, top dose 0.128 µM)
AUC: 0.865 | IC50: > 128 nM

DBTRG-05MG (glioma, adherent, top dose 0.128 µM)
AUC: 0.755 | IC50: 50.4 nM

DEL (lymphoid neoplasm, suspension, top dose 0.128 µM)
AUC: 0.882 | IC50: 86.7 nM

DG-75 (Burkitt lymphoma, suspension, top dose 0.128 µM)
AUC: 0.904 | IC50: > 128 nM

DJM-1 (skin, adherent, top dose 0.128 µM)
AUC: 0.871 | IC50: 118 nM

DK-MG (glioma, adherent, top dose 0.128 µM)
AUC: 0.739 | IC50: 55.5 nM

DMS-53 (small cell lung carcinoma, adherent, top dose 0.128 µM)
AUC: 0.974 | IC50: > 128 nM

DMS-79 (small cell lung carcinoma, suspension, top dose 0.128 µM)
AUC: 0.843 | IC50: 113 nM

DMS-114 (small cell lung carcinoma, adherent, top dose 0.128 µM)
AUC: 0.531 | IC50: 9.87 nM

DMS-273 (small cell lung carcinoma, adherent, top dose 0.128 µM)
AUC: 0.472 | IC50: 6.68 nM

DND-41 (T-cell leukaemia, suspension, top dose 0.128 µM)
AUC: 0.823 | IC50: 63.9 nM

DOK (head and neck, adherent, top dose 0.128 µM)
AUC: 0.657 | IC50: 27.2 nM

DOV13 (ovary, adherent, top dose 0.128 µM)
AUC: 0.976 | IC50: > 128 nM

DSH1 (bladder, adherent, top dose 0.128 µM)
AUC: 0.777 | IC50: 49.1 nM

DU-145 (prostate, adherent, top dose 0.128 µM)
AUC: 0.961 | IC50: > 128 nM

DU-4475 (breast, suspension, top dose 0.128 µM)
AUC: 0.78 | IC50: 42.9 nM

Daoy (medulloblastoma, adherent, top dose 0.128 µM)
AUC: 0.539 | IC50: 10.1 nM

Daudi (Burkitt lymphoma, suspension, top dose 0.128 µM)
AUC: 0.497 | IC50: 7.88 nM

Detroit562 (head and neck, adherent, top dose 0.128 µM)
AUC: 0.871 | IC50: 113 nM

DoTc2-4510 (cervix, adherent, top dose 0.128 µM)
AUC: 0.891 | IC50: > 128 nM

The IC50 comes from the fitted curve, where viability falls to half of the control; where the fit passes the top or lowest dose, that dose stands as a limit. AUC sums up the same curve from the lowest dose to the 256-fold higher top dose; values near 1 show little effect. A top dose marked as inferred is not printed in the source and was worked back from the curve model.
